The campaign covered roughly 48,000 compounds. About 450 (0.94%) were called active. Another 19% or so got no clear call; they are omitted. Calls come from the whole dose curve; as a rule, active = well fitted inhibition curve with a large enough effect; inconclusive = small, poorly fitted or top-dose-only effect; inactive = no such curve, though single readings can be large or run the other way. Some of the results follow.
Experiment: Primary qHTS for Identification of Small Molecule Inhibitors of Huntingtin Promoter Activity; note: nearly all actives have a fitted effect of over 50% in size
Details: HEK293 HTT promoter firefly luciferase reporter (activity 0% = vehicle and -100% = no light), 24 h; series mostly up to 57.5 µM; activity change, negative = inhibition: at the top concentration
Procedure, shortened: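 Firefly luciferase readout (Dual-Glo, 10 min RT) after 24 h, 37 °C compound exposure (final up to 57.5 uM) of HEK293 reporter cells cultured 24 h beforehand; PTC124 at 50 uM final as control inhibitor; activity scaled vehicle 0%, zero RLU -100%.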

Activity change, negative = inhibition, inactive:
COc1cc(-c2noc(-c3ccc(NC4CCCC4)c([N+](=O)[O-])c3)n2)cc(OC)c1OC -13.5%, O=C(NCc1ccc(F)cc1)c1nnc(Cc2cccc(F)c2)o1 -19.2%, COc1ccc(C2=NC(C)(C)N(CC(=O)Nc3cc(OC)cc(OC)c3)C2=O)cc1 -1.72%, CN(c1ccc(F)cc1)S(=O)(=O)N1CCCC(C(=O)NCCc2ccccc2)C1 (stereo unspecified) -22.5%, Cn1c2cc(S(C)=O)sc2c2cnn(Cc3cccc(N)c3)c(=O)c21 (stereo unspecified) 1.12%, CCN1CCN(c2cc(C)c3cc(NC(=O)/C=C/c4cccc(OC)c4OC)ccc3n2)CC1 -13.6%, CCOc1ccc(S(=O)(=O)NCc2nc3cccnc3n2Cc2ccccc2OC)cc1 -7.84%, CCOC(=O)C1CCN(C(=O)c2ccc3c(c2)sc2nc(-c4ccc(OC)cc4)cn23)CC1 -21.1%, CCCOc1ccc(-c2nc3ccc(Br)cc3c(=O)o2)cc1 14.8%, CC1=C(C(=O)N2CCN(c3ccc(Cl)cc3)CC2)C2(CCC(C)CC2)OC1=O (stereo unspecified) -20.6%, O=C(Cn1c(=O)n(Cc2ccccc2)c(=O)c2sc3ccccc3c21)Nc1ccc(F)cc1 -13.8%, CCCC(=O)Nc1ccc(OCC(O)CNC(C)C)c(C(C)=O)c1 (stereo unspecified) 5.52%, COc1ccc(-c2nc3sc(CCNC(=O)C(=O)Nc4ccc(C)c(C)c4)c(C)n3n2)cc1 -34.3%, CCOC(=O)c1cc(-c2ccccc2)n(CC(=O)NCc2ccccc2)c1C -18.6%, Cc1ccc(C)c(Cn2c(=O)n(CCCC(=O)NCCc3ccc(Cl)cc3)c(=O)c3ccccc32)c1 -11.4%, O=C(COc1ccc(Cl)cc1)NCC(c1cccs1)S(=O)(=O)c1ccc(F)cc1 (stereo unspecified) -29.3%, CCOc1ccc(-c2nonc2NC(=O)c2ccco2)cc1OCC -25.3%, CCOC(=O)c1ccc(NC(=O)CC2C(=O)N(c3cccc(C)c3)C(=O)N2CCOC)cc1 (stereo unspecified) -14.8%, COc1ccc(OC)c(-c2csc(-c3c(N)c(C(=O)c4ccc(Cl)cc4)n4ccccc34)n2)c1 -29.3%, CCOc1cc(CNC(=O)NC2COc3ccccc3C2)cc(OCC)c1OCC (stereo unspecified) -2.75%, Cc1ccc(OCC(=O)Nc2nnc(SCc3cc(=O)n4cccc(C)c4n3)s2)cc1 6.87%, COc1ccc(C(=O)Nc2nnc(S(=O)(=O)N(C)c3ccc(C)cc3)s2)cc1 7.22%, CCc1ccccc1Nc1ncnc2c1cnn2-c1ccc(C)cc1C -2.36%, COc1ccc(C(=O)Nc2nnc(S(=O)(=O)N3CCN(c4ccc(F)cc4)CC3)s2)cc1 -0.601%, CC(C)COc1ccc(C(=O)Nc2nnc(S(=O)(=O)N(C)Cc3ccco3)s2)cc1 7.49%, COc1cccc(CNC(=O)c2cc3c(=O)n(Cc4cccnc4)ccc3nc2C)c1 -29.6%, CCc1cccc(NC(c2ccccc2)c2nnc(-c3ccccc3F)o2)c1 (stereo unspecified) 7.18%, CCOC(=O)c1c(C)[nH]c(C)c1S(=O)(=O)N1CCCC(C(=O)NCc2ccccc2Cl)C1 (stereo unspecified) -27.8%, CC(=O)Nc1ccc(OCC(O)CNC(C)C)cc1 (stereo unspecified) 8.29%, COc1ccccc1CNC(=O)CN(c1ccccc1OC)S(C)(=O)=O -8.53%, CCC(C)NC(=O)Cn1c(=O)n(-c2ccc(OC)c(OC)c2)c(=O)c2ccccc21 (stereo unspecified) -16.4%, Cc1ccc2c(c1)Cc1c(nc(-c3ccc(F)cc3)nc1SCC(=O)N1CCCCC1)O2 -12.5%, Cc1ccc(Nc2c(-c3cccnc3)nc3ccc(Cl)cn23)cc1 -14.5%, CCOC(=O)C1CCN(C(=O)c2c(C)nn(-c3ccc(F)cc3)c2-n2cccc2)CC1 -28.3%, COc1ccc2cc(CCNS(=O)(=O)c3ccc(C)cc3)c(=O)[nH]c2c1 -16.1%, CCCc1nnc(NC(=O)Cc2coc3c(C)c(C)ccc23)s1 -8.07%, O=C(COCc1cc(-c2cccs2)on1)NCc1ccc(F)cc1 -12.7%, O=C(Nc1ccc(Cl)cc1)c1ccc(-n2cnnc2)cc1 -3.27% [at 11.5 µM], Cc1ccc(-n2ncc3c(N4CCN(Cc5ccccc5)CC4)ncnc32)cc1Cl -14.4%, CCc1cc(=O)[nH]c(SCc2nc(-c3cccc(Cl)c3)no2)n1 -14.3%, CC(C)c1ccc(NC(=O)C2CCCN2S(=O)(=O)c2ccc3nc(-c4ccccc4)[nH]c3c2)cc1 (stereo unspecified) -28.1%, COc1ccc(C(=O)N(Cc2sccc2C)C2CCS(=O)(=O)C2)cc1 (stereo unspecified) -10.2%, COc1cc(NC(=O)Cn2ccc3ccccc3c2=O)cc(OC)c1OC -25%, CCc1ccc(C2C(C(=O)Nc3ccccc3OC)=C(C)Nc3nc(SCc4ccccc4)nn32)cc1 (stereo unspecified) -2.7%, CCOc1ccc(CNC(=O)CN2N=C(c3ccccc3)CCC2=O)cc1OC -7.71%, Cc1ccc(-n2ncc(C(=O)NCCN3CCN(C)CC3)c2C2CCN(C(=O)OC(C)(C)C)CC2)cc1 -12%, Cc1nc(C)c(-c2ccc(SCC(=O)Nc3cccc(C)c3C)nn2)s1 -11.3%, Cn1c(C(=O)NCCc2ccccc2)cc2sc(Cl)cc21 30.7%, Cc1ccccc1C(=O)NNc1ncnc2c1cnn2-c1cccc(Cl)c1 -28.8%, Cc1ccc(Cn2c(CNC(=O)c3ccc(Cl)c([N+](=O)[O-])c3)nc3cccnc32)cc1 -19.4%, CCCc1ccc(NC(=O)C2CCCN(c3cnccn3)C2)cc1 (stereo unspecified) 0.638%, CCc1ccc(NC(=O)C2CCN(S(=O)(=O)c3cccc(-c4noc(C)n4)c3)CC2)cc1 -29.3%, COc1cccc(-c2oc3ccc(C)cc3c(=O)c2O)c1 51.8%, Cc1noc(C)c1S(=O)(=O)N(CC(=O)NCCc1ccc(Cl)cc1)c1ccc(C(C)C)cc1 -1.54%, CCOc1cccc2sc(NC(=O)CS(=O)(=O)c3ccc(C)cc3)nc12 -14%, CCN(Cc1ccccc1)S(=O)(=O)c1ccc(F)c(C(=O)Nc2cc(C(F)(F)F)ccc2Cl)c1 -23.7%, COc1ccc(N2C(=O)CSC23C(=O)N(CC(N)=O)c2ccccc23)cc1 (stereo unspecified) 30.3%, COc1ccc(-n2c(=O)c3sc4ccccc4c3n(CC(=O)NC3CCCCC3)c2=O)cc1 -14.2%, COC(=O)c1ccc([C@H]2Nc3ccc(S(=O)(=O)Nc4cccc(C)c4)cc3[C@H]3C=CC[C@H]32)cc1 -26%, COCCNC(=O)CCCn1c(SCc2ccccc2Cl)nc2c(sc3ccccc32)c1=O -9.79%, COc1ccccc1C1CC(=O)N(c2cccc(C(F)(F)F)c2)C2=C1C(=O)OC2 (stereo unspecified) -18.1%

— PubChem BioAssay AID1508623 (National Center for Advancing Translational Sciences (NCATS), 2021)
